Target: the molecule itself
Test: SEC + other: dynamic light scattering; hydrodynamic behaviour of the purified variants in solution; dimers even at concentrations ≤1 μM; DLS with 10 μM protein (monomer units) in 50 mM HEPES-KOH pH 7.4 at 25 °C

Protein	stoichiometry N
Δ50-NQO1 WT (C-terminal truncated NQO1, lacking the last 50 residues) (domain or fragment, lacks the last 50 residues (the C-terminal domain, CTD); also called Δ50-WT; source: E. coli BL21 (DE3), purified) not shown	2
Δ50-NQO1 p.P187S (C-terminal truncated NQO1 p.P187S, lacking the last 50 residues) (domain or fragment, lacks the last 50 residues (CTD); also called Δ50-p.P187S; source: E. coli BL21 (DE3), purified) not shown	2
NQO1 p.P187S, full-length (cancer-associated polymorphism c.C609T) (enzyme, NAD(P)H:quinone oxidoreductase 1 (NQO1), full-length, natural polymorphic variant p.P187S; essentially an apo-protein as purified; also called NQO1 P187S; source: E. coli BL21 (DE3), purified) not shown	2

From PMC5349528, “Site-to-site interdomain communication may mediate different loss-of-function mechanisms in a cancer-associated NQO1 polymorphism” (Scientific Reports, 2017)
